Test results reported in paper PMC12040169 (PLOS Biology, 2025).
The other results are listed elsewhere or left out.

The compounds below were run on T1, C. trachomatis L2/434/Bu expressing GFP (CTL2-GFP). Conditions: total inclusion area; 28.5 h, 10 µM; inhibitor.
T1 construct: L2/434/Bu GFP intracellular growth in HeLa cells
Parameters: species or system HeLa; C. trachomatis total inclusion area by high-content imaging, normalised to DMSO
Method in brief: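 Host cell viability was gauged from Hoechst-stained nuclei counts, while chlamydial growth was taken from total inclusion area and inclusion number per well. Cells were fixed and imaged by high-content microscopy once bulk GFP and resorufin fluorescence had been measured.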

Point of comparison: `Cc1nc2ccc(C(=O)NCCCN3CC(C)CC(C)C3)cc2[nH]1` (stereo not shown) [CBK283298], “% of control remaining” value 103.558. Against it:
- CC(C(=O)NCCc1cn(C)c2ccc(Cl)cc12)N1CCOCC1 (stereo not shown) [CBK282263] — lower, 93.3982
- COc1ccc(Cn2nc(N)c3ccccc32)cc1 [CBK093530] — lower, 97.6364
- Cc1cc2c(o1)c1cnn(CC(=O)N(C)C)c(=O)c1n2C(C)C [CBK284233] — lower, 79.6418
- c1ccc2[nH]c(CN3CCC[C@@H]3CN3CCCC3)nc2c1 [CBK149102] — lower, 97.256
- CCN1CCN(C(=O)CN(C)S(=O)(=O)c2ccc(OC)c(Cl)c2)CC1 [CBK268091] — lower, 89.0445
- Cc1cc(NC(=O)C(C)N2CCN(S(=O)(=O)c3ccc(C4CCCCC4)cc3)CC2)on1 (stereo not shown) [CBK295639] — lower, 66.0829
- O=C(O)CCCCCN1C(=O)/C(=C/c2ccc(O)cc2)SC1=S [CBK262835] — lower, 76.4271
- CCCCOc1ccc(OC(=O)COCCOCCN2C(=O)c3ccccc3C2=O)cc1 [CBK155584] — lower, 89.2154
- CCn1c(C)nc2cc(NC(=O)c3c4c(nn3C)CCCC4)ccc21 [CBK281831] — lower, 99.0161
- CCOc1ccc(/C=C2/NC(=O)NC2=O)cc1Br [CBK098031] — higher, 106.726
- O=C(OCCN1CCOCC1)N1CCN(c2ccccc2)CC1 [CBK200242] — higher, 133.323
- COc1ccc(-c2noc(CN(C(=O)Cc3ccc(C)cc3)C(C)C)n2)cc1 [CBK269774] — lower, 79.4094
- O=C(c1c(-c2ccccc2)nnc2ccccc12)N1CCN(CCO)CC1 [CBK066882] — lower, 95.5788
- c1nc(NCCCN2CCOCC2)c2c3c(sc2n1)CCCCC3 [CBK268236] — higher, 129.706
- CN1CCC(N2CCN(C(=O)NC3CCc4ccccc43)CC2)CC1 (stereo not shown) [CBK156110] — higher, 110.845
- O=C(N[C@H]1CCN(Cc2ccccc2)C1)c1cnc(-c2ccccc2)c(-c2ccncc2)c1 [CBK036639] — higher, 106.17
- O=C1N=C(NCc2ccccc2F)OC12CCN(Cc1ccccc1)CC2 [CBK115688] — lower, 98.0682
- COc1cccc(CCN2C(=O)CC3(C2=O)C(=O)N(C)c2ccc(OC)cc23)c1 (stereo not shown) [CBK075191] — higher, 106.159
- CCCCCn1c(=O)c(Cc2ccccc2)c(O)c2ccccc21 [CBK291233] — higher, 107.47
- CC(=O)N1CCC(NC(=O)c2cccc(C(N)=O)c2)CC1 [CBK297747] — lower, 69.204
- C=C(C)Cn1c(Cc2ccccc2)nnc1SC(C)C [CBK200083] — lower, 76.7661
